# About 5,700 (2.6%) of roughly 220,000 compounds were called active. The inconclusive results got no clear call from the source; some entries with a clear call stand among them for comparison. Calls follow the shape of the dose curve; as a rule, active = well fitted inhibition curve with a large enough effect; inconclusive = small, poorly fitted or top-dose-only effect; inactive = no such curve, though single readings can be large or run the other way. Where the call is inconclusive, the potency comes from a doubtful curve fit.
# Target: Lysine-specific demethylase 5B (Homo sapiens) (UniProt Q9UGL1)
# Test: Primary screen for KDM5B Histone Demethylases FDH-coupled qHTS; also: nearly all actives have a fitted effect of over 70% in size; as to activity change, negative = inhibition: 0% is about no effect
# Settings: FDH-coupled NADH fluorescence (FDH is formaldehyde dehydrogenase); activity change, negative = inhibition: at 57.7 µM (top of the series) unless noted
# Method in brief: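 KDM5BΔAP (200 nM final) in 50 mM HEPES pH 7.5, 0.01% Tween-20 was preincubated 10 min at RT with compound over a concentration range. Substrate mix (H3K4me3 12.5 µM, α-KG 25 µM, Fe²⁺, ascorbate, NAD⁺, FDH) was added, and NADH fluorescence change over 30 min gave dose-response curves.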
# Potency is read from the fitted curve at half-maximal effect; tags tell the direction and shape of the fitted curve.
# Chain of UniProt Q9UGL1 (Q9UGL1 whole entry, looked up): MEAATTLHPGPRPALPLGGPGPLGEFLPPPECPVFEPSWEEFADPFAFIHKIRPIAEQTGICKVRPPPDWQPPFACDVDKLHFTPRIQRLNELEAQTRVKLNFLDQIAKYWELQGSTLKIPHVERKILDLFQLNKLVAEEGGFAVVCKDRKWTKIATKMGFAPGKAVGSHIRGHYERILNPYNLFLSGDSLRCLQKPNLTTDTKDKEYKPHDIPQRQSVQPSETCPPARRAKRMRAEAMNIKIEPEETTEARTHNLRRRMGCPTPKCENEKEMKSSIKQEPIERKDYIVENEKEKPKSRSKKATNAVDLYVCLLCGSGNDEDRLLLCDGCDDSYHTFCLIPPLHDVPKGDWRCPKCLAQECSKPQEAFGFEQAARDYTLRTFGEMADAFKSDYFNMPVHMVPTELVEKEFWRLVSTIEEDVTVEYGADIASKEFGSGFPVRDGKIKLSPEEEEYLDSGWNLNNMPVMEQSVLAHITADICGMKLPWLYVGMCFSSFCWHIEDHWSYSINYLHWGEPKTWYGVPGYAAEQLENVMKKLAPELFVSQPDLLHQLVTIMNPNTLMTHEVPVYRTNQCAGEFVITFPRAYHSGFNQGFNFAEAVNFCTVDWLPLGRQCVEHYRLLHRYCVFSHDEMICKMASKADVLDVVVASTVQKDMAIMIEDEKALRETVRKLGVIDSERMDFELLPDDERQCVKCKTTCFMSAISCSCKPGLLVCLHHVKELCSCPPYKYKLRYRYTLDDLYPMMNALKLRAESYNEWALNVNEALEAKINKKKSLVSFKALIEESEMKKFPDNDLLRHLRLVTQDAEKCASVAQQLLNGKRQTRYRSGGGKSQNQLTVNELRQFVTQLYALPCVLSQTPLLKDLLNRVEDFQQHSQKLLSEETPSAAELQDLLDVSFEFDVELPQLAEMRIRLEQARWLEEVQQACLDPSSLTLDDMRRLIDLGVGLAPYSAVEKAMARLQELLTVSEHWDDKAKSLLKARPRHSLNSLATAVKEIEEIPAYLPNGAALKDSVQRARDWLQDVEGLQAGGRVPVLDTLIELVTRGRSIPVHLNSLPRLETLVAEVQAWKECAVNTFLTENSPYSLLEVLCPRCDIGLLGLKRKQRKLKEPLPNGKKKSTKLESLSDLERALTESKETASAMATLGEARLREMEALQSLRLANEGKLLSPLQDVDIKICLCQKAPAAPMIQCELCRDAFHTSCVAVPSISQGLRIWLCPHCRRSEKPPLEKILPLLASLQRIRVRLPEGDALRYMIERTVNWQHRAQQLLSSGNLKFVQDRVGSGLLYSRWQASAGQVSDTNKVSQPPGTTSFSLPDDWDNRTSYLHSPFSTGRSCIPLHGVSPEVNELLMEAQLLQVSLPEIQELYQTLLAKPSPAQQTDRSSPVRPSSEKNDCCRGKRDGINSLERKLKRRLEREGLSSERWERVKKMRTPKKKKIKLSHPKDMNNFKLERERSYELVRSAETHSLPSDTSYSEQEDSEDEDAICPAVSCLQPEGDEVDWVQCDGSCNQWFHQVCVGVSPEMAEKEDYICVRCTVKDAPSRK
SMILES,Potency,"activity change, negative = inhibition"
Cc1ccc(CSc2oc(-c3ccco3)nc2S(=O)(=O)c2ccc(C)cc2)cc1,"inconclusive: 2.24 µM [inhibitor, partial curve, poor fit]",
Cc1cccc(OCC(=O)NCCn2cccc2-c2nc(-c3ccc4c(c3)OCO4)no2)c1,"inconclusive: 35.5 µM [inhibitor, partial curve, poor fit]",
COc1cc(/C=C(\C#N)c2nc3ccccc3[nH]2)cc(Cl)c1OCc1ccccc1Cl,"inconclusive: 12.6 µM [inhibitor, partial curve, poor fit]",
COc1ccccc1-n1[nH]c(C)c(Cc2ccc(Cl)cc2)c1=O,"inconclusive: 28.2 µM [inhibitor, partial curve, poor fit]",
COc1ccc(-c2cc(=O)c3cc(C)ccc3o2)cc1,"inconclusive: 1.78 µM [inhibitor, partial curve, poor fit]",
COc1ccc(C(C)NC(=O)c2ccc(Cn3ccn4nc5c(c4c3=O)CCCC5)cc2)cc1 (stereo not drawn),"inconclusive: 31.6 µM [inhibitor, single point]",
O=C(c1ccccc1F)N1CCC2(CCCCO2)CC1,inactive,
O=C1CCN(C(=O)COc2ccc(F)cc2)CCCC(c2nc(-c3cccnc3)no2)CCN1 (stereo not drawn),inactive,
Cc1cc(C(=O)OCC(=O)c2cc(C)n(CCc3ccccc3)c2C)c2ccccc2n1,inactive,
CC(C)OCCCNc1nc2c([S+](=O)([O-])c3cccnc3)nnn2c2ccccc12,inactive,
CN1CCN(C(=O)c2ccc(-c3nnc4ccc(NC(=O)C5CCC5)cn34)cc2)CC1,"inconclusive: 28.2 µM [inhibitor, partial curve, poor fit]",
CC(=O)c1c(OCCC(C)C)ccc2c(C)cc(=O)oc12,inactive,
CCn1c2ccccc2c2cc(CN3CCN(Cc4ccccc4Cl)CC3)ccc21,"inconclusive: 25.1 µM [inhibitor, partial curve, poor fit]",
COc1cc(OC)c(NC2(c3ccccc3)C(=O)c3ccccc3C2=O)cc1Cl,"inconclusive: 25.1 µM [inhibitor, partial curve, poor fit]",
CCC1(CC)Cc2ccccc2-c2[nH]c(=S)[nH]c(=O)c21,"inconclusive: 39.8 µM [inhibitor, partial curve, poor fit]",
Cc1ccc(CN2C(=O)NC3(CCCN(C(=O)c4ccc(F)c(Cl)c4)C3)C2=O)cc1 (stereo not drawn),inactive,
O=C(c1ccccc1)c1c(-c2ccccc2)[nH]n(-c2ccccc2)c(=O)c1=O,"inconclusive: 35.5 µM [inhibitor, single point]",
O=C(O)CCC(=O)N1Cc2[nH]cnc2C[C@H]1c1nc(-c2ccc3ccccc3c2)no1,"inconclusive: 28.2 µM [inhibitor, partial curve]",
O=C(Nc1ccc(OC(F)(F)F)cc1)c1nc2ccccc2nc1N1CCCCC1,"inconclusive: 25.1 µM [inhibitor, partial curve, poor fit]",
CC(C)=CCC[C@@]1(C(=O)O)[C@H]2CC=C(CO)[C@@H]1CC/C(C)=C/CC/C(C)=C/C2,"inconclusive: 25.1 µM [inhibitor, partial curve, poor fit]",
COc1ccc(OC2CCN(C(C)=O)CC2)c(C(=O)NCc2cc3ccccc3[nH]2)c1,"inconclusive: 31.6 µM [inhibitor, partial curve, poor fit]",

SMILES,Potency,"activity change, negative = inhibition"
O=C(CCS(=O)(=O)c1ccc2c(c1)OCCO2)Nc1ccc(SC(F)F)cc1,inactive,
CC1(C(=O)NCc2ccccc2)CN(Cc2ccccc2)Cc2ccc(N3CCOCC3)nc21 (stereo not drawn),active: 22.4 µM,
COC[C@@H]1CN(c2cnccn2)C[C@H]1C(=O)NCc1ccccc1F,active: 20 µM,
CCOc1ccc(NC(=O)CSc2nc(C)c(C(=O)Nc3ccccc3)c(-c3ccc(Cl)cc3)c2C#N)cc1,"inconclusive: 15.8 µM [inhibitor, single point]",
COc1ccc(C2C(C#N)=C(N)Oc3n[nH]c(C)c32)c(OCc2ccccc2Cl)c1 (stereo not drawn),"inconclusive: 20 µM [inhibitor, partial curve, poor fit]",
Cc1ccc(NC(=O)/C(=C\c2ccco2)NC(=O)c2ccco2)cc1,"inconclusive: 7.94 µM [inhibitor, partial curve, poor fit]",
COCCN(CC(N)=O)S(=O)(=O)c1ccc(F)cc1,"inconclusive: 31.6 µM [inhibitor, single point]",
CN(Cc1ccc(-c2ccc(Cl)cc2)o1)C(=O)CSc1nnc(C2CC2)n1Cc1ccco1,"inconclusive: 20 µM [inhibitor, single point]",
COc1ccc(OC)c(NC(=O)c2cc(-c3cc(C)cc(C)c3O)n[nH]2)c1,"inconclusive: 39.8 µM [inhibitor, single point]",
O=C(NCc1ccccn1)C1CCN(c2nccc(-c3cccnc3)n2)CC1,"inconclusive: 28.2 µM [inhibitor, partial curve, poor fit]",
CCc1ccccc1NC(=O)Nc1ccc2c(c1)N(CC)C(=O)c1ccccc1S2,,inconclusive: -42.7% [inhibitor]
COc1cccc2cc(-c3cc(=O)oc4cc(O)ccc34)c(=O)oc12,"inconclusive: 31.6 µM [inhibitor, partial curve, poor fit]",
O=C1CCN(S(=O)(=O)c2ccc3c(c2)CCC3)CCCC(C(=O)NCc2ccncc2)CCN1 (stereo not drawn),inactive,
O=C(NC[C@H]1Cn2c(-c3ccc(Cl)cc3)cnc2CO1)Nc1ccccc1,"inconclusive: 28.2 µM [inhibitor, partial curve]",
Cc1ccc(-n2ncc(C(=O)N3CCCC3)c2-n2cccc2)cc1,inactive,
CCOc1ccc(-c2cc(OC(=O)c3ccc(OC)cc3)c3c(C)oc(C)c3c(=O)c2)cc1,"inconclusive: 28.2 µM [inhibitor, partial curve, poor fit]",
CC1=C[C@@H](CN2CCN(c3ncccn3)CC2)[C@H](C(C)C)C[C@H]1Cc1nnc(COc2ccc(F)cc2)o1,"inconclusive: 39.8 µM [inhibitor, single point]",
CC(C)NC(=O)Cn1c(=O)n(-c2ccccc2)c(=O)c2sccc21,"inconclusive: 39.8 µM [inhibitor, single point]",
CCc1nc2ccc(C(=O)N3CCN(c4cccc(C)c4C)CC3)cc2nc1CC,"inconclusive: 7.94 µM [inhibitor, partial curve, poor fit]",
O=C1COc2ccc(Nc3cccc(F)c3)nc2CN1CCOc1ccccc1,"inconclusive: 39.8 µM [inhibitor, partial curve, poor fit]",
O=C(Cc1cccc(Cl)c1)NC1CC(=O)N(Cc2ccc(F)cc2)C1 (stereo not drawn),inactive,

SMILES,Potency,"activity change, negative = inhibition"
O=C(CSc1nc2cc(Cl)ccc2s1)N1CCC(Cc2ccccc2)CC1,inactive,
CC(OC(=O)/C=C/c1cccc2cccnc12)C(=O)Nc1ccccc1 (stereo not drawn),inactive,
CCCCN1C(=O)c2ccccc2C(C(=O)Nc2nncs2)C12CCCC2 (stereo not drawn),inactive,
CC(Oc1ccc(F)cc1)C(=O)N1CCN(Cc2nc(N)c3ccccc3n2)CC1 (stereo not drawn),inactive,
O/N=C1\CCCc2ccc3ccccc3c21,"inconclusive: 20 µM [inhibitor, single point]",
COc1cccc(C(=O)/C=C/c2ccc(Br)cc2)c1,"inconclusive: 12.6 µM [inhibitor, partial curve, poor fit]",
O=C(O)[C@@H]1CN(C(=O)CCn2ccc(=O)[nH]c2=O)C[C@H]1c1cccc(F)c1,inactive,
O=C(NC1CCCc2c1[nH]c1ccccc21)c1ccco1 (stereo not drawn),"inconclusive: 6.31 µM [inhibitor, partial curve]",
Cc1cccc(-n2ccnc2SCC(=O)Nc2ccc(F)cc2F)c1C,"inconclusive: 25.1 µM [inhibitor, partial curve, poor fit]",
O=C(Cn1c(=O)oc2cc(S(=O)(=O)N3CCCCCC3)ccc21)NCc1ccccc1Cl,"inconclusive: 11.2 µM [inhibitor, partial curve, poor fit]",
COc1ccc(-c2noc(C(=O)O)c2[C@@H](C)NS(=O)(=O)c2ccccc2)cc1,"inconclusive: 39.8 µM [inhibitor, single point]",
COc1ccc(-c2nc(-c3c(C)noc3C)cc3c2cc(C)n3CCN(C)C)cn1,active: 39.8 µM,
O=C(Nc1c(C(=O)Nc2ccc(F)cc2)oc2ccccc12)c1cc2ccccc2o1,"inconclusive: 11.2 µM [inhibitor, partial curve, poor fit]",
Nc1nnc(CC(=O)N/N=C/c2ccc(-c3ccc(F)cc3)o2)s1,"inconclusive: 39.8 µM [inhibitor, single point]",
COc1ccc(-c2[nH]nc3ncc(C(=O)Nc4ccccc4)nc23)c(C)c1,"inconclusive: 56.2 µM [inhibitor, single point]",
Cc1ccc(-c2nn(CC(=O)Nc3ccc(C(=O)N(C)C)cc3)c(=O)c3ccccc23)cc1,inactive,
Cc1cc(C)c(S(=O)(=O)c2nnn3c2nc(NCc2ccc(F)cc2)c2ccccc23)c(C)c1,"inconclusive: 79.4 µM [inhibitor, partial curve, poor fit]",
COC(=O)C1=C(C)N=C2SC=C(CC(=O)NCC3CCCO3)N2C1c1ccc(OC)cc1OC (stereo not drawn),"inconclusive: 28.2 µM [inhibitor, partial curve]",
CCOC(=O)c1nc(Nc2ccc(C(C)=O)cc2)c2ccccc2n1,"inconclusive: 28.2 µM [inhibitor, partial curve, poor fit]",
COc1ccc(/C=C(\NC(=O)c2ccc(OC)cc2)C(=O)OCCC(C)C)cc1,inactive,
CS(=O)(=O)Cc1cccc(C(=O)NC(Cc2ccccc2)c2ccccc2)c1 (stereo not drawn),inactive,
